Reference: the antibiotic and cytotoxicity screens of Wong et al. (2023)
The other results are listed elsewhere or left out.

Tested on: HSkMC (human skeletal muscle cells)
Assay: cytotoxicity call (relative viability < 0.9)
Settings: 10 µM

Structure (SMILES) | cytotoxicity call
C[C@@H]1CN([C@H](C)CO)C(=O)c2cccc(NC(=O)C3CC3)c2O[C@@H]1CN(C)Cc1ccc(C(=O)O)cc1 | inactive
CCCNC(=O)Nc1ccc2c(c1)OC[C@H](C)N(Cc1ccc(-c3ccccn3)cc1)C[C@@H](C)[C@@H](OC)CN(C)C2=O | inactive
CC(=O)Nc1ccccc1 | inactive
C[N+](C)(C)CCOP(=O)([O-])OP(=O)(O)OCC1OC(n2ccc(N)nc2=O)C(O)C1O (stereo unspecified) | inactive
COC(=O)c1cc(C)cc(=O)o1 | inactive
COc1ccc(S(=O)(=O)N(C)C[C@@H]2Oc3ccc(NC(=O)Cn4cnnn4)cc3CC(=O)N([C@H](C)CO)C[C@H]2C)cc1 | inactive
O=C(C[C@@H]1C=C[C@@H](NC(=O)Nc2ccc3c(c2)OCO3)[C@H](CO)O1)NCCCN1CCOCC1 | inactive
C[C@H]1CN([C@@H](C)CO)S(=O)(=O)c2ccc(C#CCN(C)C)cc2O[C@@H]1CN(C)Cc1cccnc1 | inactive
CNC[C@@H]1OCCCC[C@@H](C)Oc2ccc(NC(=O)c3ccncc3)cc2C(=O)N([C@H](C)CO)C[C@H]1C | inactive
C[C@H](CO)N1C[C@H](C)[C@@H](CN(C)S(=O)(=O)c2ccc(Cl)cc2)Oc2ccc(N(C)C)cc2C1=O | inactive
C[C@H]1CN([C@@H](C)CO)C(=O)c2cc(NC(=O)C3CCCCC3)ccc2O[C@H]1CN(C)Cc1ccc(C(F)(F)F)cc1 | inactive
C[C@@H]1CCCCO[C@H](CN(C)C(=O)Nc2cccc3ccccc23)[C@@H](C)CN([C@H](C)CO)C(=O)c2cc(NS(=O)(=O)c3ccc(Cl)cc3)ccc2O1 | active
C[C@@H]1CN([C@H](C)CO)C(=O)c2cccc(NS(=O)(=O)c3cn(C)cn3)c2O[C@@H]1CN(C)S(C)(=O)=O | inactive
CC(=O)N1[C@@H]2Cn3c(ccc(-c4ccccc4)c3=O)[C@H]1[C@@H](C(=O)NCCCN1CCOCC1)[C@@H]2CO | inactive
CC(C)(O)c1ccccc1CC[C@@H](SCC1(CC(=O)O)CC1)c1cccc(/C=C/c2ccc3ccc(Cl)cc3n2)c1 | active
COc1ccc(NC(=O)Nc2ccc3c(c2)C(=O)N([C@H](C)CO)C[C@H](C)[C@H](CN(C)C(=O)C2CCCCC2)OCCCC[C@H](C)O3)cc1 | inactive

Structure (SMILES) | cytotoxicity call
C[C@H]1CCCCO[C@@H](CN(C)C(=O)Nc2ccccc2)[C@@H](C)CN([C@@H](C)CO)C(=O)c2cc(NC(=O)NC3CCCCC3)ccc2O1 | inactive
COC(=O)[C@@H](Cc1ccc(-n2cc(-c3ccc(C(=O)NO)s3)nn2)cc1)N1CC2=C[C@H](C3CC3)n3c(=O)n(C)c(=O)n3[C@@H]2[C@H]1[C@H](O)Cc1ccccc1 | inactive
C[C@@H]1CN([C@@H](C)CO)C(=O)c2cc(NC(=O)Nc3ccc(F)cc3)ccc2O[C@@H](C)CCCCO[C@H]1CN(C)C(=O)C1CCCCC1 | inactive
C[C@H](CO)N1C[C@H](C)[C@@H](CN(C)Cc2ccccc2)OCCCC[C@H](C)Oc2ccc(NS(=O)(=O)c3ccc(F)cc3)cc2C1=O | inactive
C[C@H]1CN([C@@H](C)CO)C(=O)c2cc(NC(=O)CCN3CCOCC3)ccc2O[C@H]1CN(C)Cc1ccc2c(c1)OCO2 | inactive
CSCCC(N)C(=O)O (stereo unspecified) | inactive
C=CCOC(=O)[C@H]1[C@@H]2C(=O)O[C@@H](c3ccccc3)[C@@H](c3ccccc3)N2[C@@H](c2ccc(OCCOC(=O)[C@H]3C[C@H]4C(=O)N[C@@H](CC(C)C)C(=O)N4[C@H]3c3cccc(OCCO)c3)cc2)[C@]12C(=O)Nc1ccc(I)cc12 | inactive
N[C@H](C(=O)O)c1ccc(C(=O)O)c(C(=O)O)c1 | inactive
O=C(C[C@@H]1CC[C@H]2[C@@H](COC[C@@H](O)CN2S(=O)(=O)c2ccccc2)O1)NCCN1CCCC1 | inactive
C[C@@H]1CN([C@@H](C)CO)C(=O)CCCn2cc(nn2)CO[C@H]1CN(C)C(=O)Nc1ccnc(N2CCOCC2)c1 | inactive
C[C@H]1CN([C@@H](C)CO)C(=O)c2cc(-c3cccc(C(=O)N(C)C)c3)cnc2O[C@@H]1CN(C)S(=O)(=O)c1ccccc1 | inactive
Nc1ccccc1C(=O)C[C@H](N)C(=O)O | inactive
COc1ccc(COC[C@]23N=C4SCC(=O)N4[C@H](c4ccccc4O2)[C@H]3COC(=O)NCCCCCC(=O)NO)cc1 | inactive
Cc1ccc(N(CC(=O)O)S(C)(=O)=O)cc1 | inactive
CNC1CCC(c2ccc(Cl)c(Cl)c2)c2ccccc21.Cl (stereo unspecified) | active
